{
  "source": "PubChem BioAssay AID1508624",
  "about": "(National Center for Advancing Translational Sciences (NCATS), 2021)",
  "note": "The campaign covered roughly 48,000 compounds. About 120 (0.25%) were called active. Not shown: some 4% with an inconclusive outcome. Calls follow the shape of the dose curve; as a rule, active = well fitted activation curve with a large enough effect; inconclusive = small, poorly fitted or top-dose-only effect, or another doubt; inactive = no such curve, though single readings can be large or run the other way. The list shows a part of the results. Potency is read from the fitted curve at half-maximal effect.",
  "data": [
    {"test": "Primary qHTS for Identification of Small Molecule Activators of Huntingtin-Antisense Promoter Activity; also: nearly all actives have a fitted effect of over 55% in size", "details": "HEK293 HTT-AS promoter firefly luciferase reporter, 24 h; series mostly up to 57.5 µM; activity change, positive = activation: at the top concentration", "source_text": "Assay Provider: Russell L. Margolis M.D.\nDepartment Neurology, Johns Hopkins University School of Medicine, Baltimore, MD\nHuntington's Disease (HD) is a neurodegenerative disorder caused by a CAG repeat expansion in exon 1 of huntingtin (HTT). While there are currently no disease-modifying treatments for HD, recent efforts have focused on development of nucleotide-based therapeutics to lower HTT expression. As an alternative to siRNA or oligonucleotide methods, we hypothesized that suppression of HTT expression might be accomplished by small molecules that either (1) directly decrease HTT expression by suppressing HTT promoter activity or (2) indirectly decrease HTT expression by increasing the promoter activity of HTT-AS, the gene antisense to HTT that appears to inhibit expression of HTT.\nWe developed and employed a high throughput screen for modifiers of HTT and HTT-AS promoter activity using luminescent reporter HEK293 cells; of the 52,041 compounds tested, we identified 898 replicable hits. We used a rigorous stepwise approach to assess compound toxicity and the capacity of the compounds to specifically lower huntingtin protein in 5 different cell lines, including HEK293 cells, HD lymphoblastoid cells, mouse primary neurons, HD iPSCs differentiated into cortical-like neurons, and HD hESCs. We found no compounds which were able to lower huntingtin without lowering cell viability in all assays, though the potential efficacy of a few compounds at non-toxic doses could not be excluded.\nSEQUENCE No. (1, 2, 3, etc.); […] (e.g., Cells, Incubation, Reagent, etc.); VALUE and DESCRIPTION.\n1; Reagent; 4 uL; 2,500 Hek293 luciferase reporter cells per wells\n3; Compound; 23 nL; Control inhibitor / compound library\n5; Reagent; 2.5 uL; Firefly Luc reagent; Dual-Glo Luciferase Reporter Assay System (Promega)\n6; Time; 10 min; room temperature incubation\n7; Detection; Luminescence; FLuc\nNOTES (numbers refer to sequence above)\n1; High-throughput screening, measuring luminescence from a Hek293 luciferase reporter, was performed in 1,536 well white-walled tissue-culture treated plates. 2,500 cells were plated in 4 µL of Opti-MEM per well using a Multidrop Combi Reagent Dispenser (ThermoFisher).\n2; Assay plates were cultured for 24 hours.\n3; Control inhibitor (PTC124; final concentration of 50 uM) and compound library (at final concentrations of 460 nM - 57.5 uM) were added to the assay plate using the Kalypsis Pintool Robotic System equipped with 1536 pinheads.\n4; Cells were then incubated for 24 hours at 37 degrees C prior to luminescence measurements.\n5; In all cases, luminescence was measured using the Dual-Glo Luciferase Reporter Assay System (Promega) following the manufacturer's instructions.\n6; Room temperature incubation.\n7; Luminescence signal was obtained using the PerkinElmer ViewLux plate reader. Results were normalized to vehicle control (0% activity) and zero RLU (-100% activity).", "values": [
      {"smiles": "CSc1ccc(CNC(=O)CCn2c(=O)c3cccn3c3ccc(F)cc32)cc1", "activity change, positive = activation": "inactive: -17.7%"},
      {"smiles": "Cc1ccccc1C(=O)Nc1ccc2c(c1)CCCN2C(=O)c1cccs1", "activity change, positive = activation": "inactive: -11.6%"},
      {"smiles": "COc1ccc(C(=O)N2CCC(c3nc(-c4ccc(S(=O)(=O)N5CCCC5)cc4)no3)CC2)cc1", "activity change, positive = activation": "inactive: -24.3%"},
      {"smiles": "COC(=O)c1cc2occc2n1Cc1cccc(C)c1", "activity change, positive = activation": "inactive: -20.9%"},
      {"smiles": "COCCNC(=O)CCN1C(=O)c2cccnc2Oc2ccc(C)cc21", "activity change, positive = activation": "inactive: -2.86%"},
      {"smiles": "COc1ccc(C(=O)Nc2ccc(-c3nc4ccccc4s3)cc2C)cc1Cl", "Potency": "active: 1000 nM"},
      {"smiles": "COC(=O)c1cc(-c2ccc(OC)c(OC)c2)c2c(=O)[nH]c(=O)n(C)c2n1", "activity change, positive = activation": "inactive: -1.73%"},
      {"smiles": "C[N+]1(CC2COC(c3ccccc3)(C3CCCCC3)O2)CCCCC1", "note": "(stereo unspecified)", "activity change, positive = activation": "inactive: 1.15%"},
      {"smiles": "CCC(=O)N1CCc2cc(S(=O)(=O)NC(CC(C)C)C(=O)NCc3ccc(F)cc3)ccc21", "note": "(stereo unspecified)", "activity change, positive = activation": "inactive: -2.31%"},
      {"smiles": "Cc1ccc(NC(=O)Cn2c(=O)n(Cc3nc(C)no3)c(=O)c3cc4c(cc32)OCO4)c(Cl)c1", "activity change, positive = activation": "inactive: -12%"},
      {"smiles": "Cc1cccc(C)c1NC(=O)Cn1c(=O)n(Cc2ccco2)c(=O)c2ccc(C(=O)NC3CCCC3)cc21", "activity change, positive = activation": "inactive: -21.9%"},
      {"smiles": "Cc1ccc(S(=O)(=O)c2nc(-c3ccco3)oc2SCC(=O)Nc2ccc(F)cc2)cc1", "activity change, positive = activation": "inactive: 2.93%"},
      {"smiles": "O=C(CCn1c(=O)c2sccc2n(Cc2cccc(F)c2)c1=O)NCc1ccc2c(c1)OCO2", "activity change, positive = activation": "inactive: -6.31%"},
      {"smiles": "CCOc1ccc(CNC(=O)C2CCCN(S(=O)(=O)N(C)c3ccc(F)cc3)C2)cc1OC", "note": "(stereo unspecified)", "activity change, positive = activation": "inactive: -24.7%"},
      {"smiles": "COc1cccc(Cn2c(NCc3ccc(C)cc3)nc3c2c(=O)n(C)c(=O)n3C)c1", "activity change, positive = activation": "inactive: 14.3% [at 11.5 µM, percent change from vehicle, -100% = no light]"},
      {"smiles": "CC(=O)c1ccc(NC(=O)c2ccc(-c3nc(COc4ccc(C)cc4)c(C)o3)cc2)cc1", "activity change, positive = activation": "inactive: -9.72%"},
      {"smiles": "CC[C@]12CCCN3CCc4c(n(c5ccccc45)[C@@](O)(C(=O)OC)C1)[C@@H]32", "activity change, positive = activation": "inactive: -4.9%"},
      {"smiles": "Cc1nn(-c2ccc3nnc(C)n3n2)c(C)c1CCC(=O)Nc1ccc(OC(F)(F)F)cc1", "activity change, positive = activation": "inactive: -16.3%"},
      {"smiles": "CCOC(=O)c1cnc2c(ccc3ccccc32)c1Nc1ccc(Cl)cc1", "activity change, positive = activation": "inactive: -5.2%"},
      {"smiles": "CCNc1nc(NC(C)(C)C)nc(Oc2ccc(=O)n(C)n2)n1", "activity change, positive = activation": "inactive: -8.98%"},
      {"smiles": "O=C(NCCc1ccccc1)C(=O)NCC(c1ccc2c(c1)OCO2)N1CCOCC1", "note": "(stereo unspecified)", "activity change, positive = activation": "inactive: -6.78%"},
      {"smiles": "CC1CCN(S(=O)(=O)c2nnc(NC(=O)c3cccc(Br)c3)s2)CC1", "activity change, positive = activation": "inactive: -54.5%"},
      {"smiles": "CCS(=O)(=O)N1CCc2cc(C(=O)NCCc3ccc(OC)cc3)ccc21", "activity change, positive = activation": "inactive: -25.6%"},
      {"smiles": "COc1cc(NC(=O)CC(C)n2nc(C)cc2C)cc(OC)c1", "note": "(stereo unspecified)", "activity change, positive = activation": "inactive: -4.8%"},
      {"smiles": "Cc1ccc(NC(=O)Cn2c(=O)n(CCC(=O)NCc3ccccc3Cl)c(=O)c3ccccc32)cc1", "activity change, positive = activation": "inactive: -54.6%"},
      {"smiles": "CCOc1ccccc1C(=O)N(Cc1ccccc1F)C1CCS(=O)(=O)C1", "note": "(stereo unspecified)", "activity change, positive = activation": "inactive: -17%"},
      {"smiles": "COc1cc(NC(=O)C(CCSC)NS(=O)(=O)c2ccc3c(c2)oc(=O)n3C)cc(OC)c1", "note": "(stereo unspecified)", "activity change, positive = activation": "inactive: -13.8%"},
      {"smiles": "COc1ccc(Cl)cc1NC(=O)CSc1cn(CC(=O)N2CCCCCC2)c2ccccc12", "activity change, positive = activation": "inactive: -47%"},
      {"smiles": "COc1ccc(NC(=O)CCc2c(C)nc3nc(CNC(=O)OC(C)(C)C)nn3c2C)cc1OC", "activity change, positive = activation": "inactive: -5.08%"},
      {"smiles": "COc1ccc(CC2C(=O)Nc3ccc(Br)cc32)cc1OC", "note": "(stereo unspecified)", "activity change, positive = activation": "inactive: -17.6%"},
      {"smiles": "O=C(Nc1ccc(F)c(Cl)c1)C1CCCN(c2cnccn2)C1", "note": "(stereo unspecified)", "activity change, positive = activation": "inactive: 8.83%"},
      {"smiles": "COc1ccc(S(=O)(=O)NCC(c2ccco2)N2CCN(c3ccc(F)cc3)CC2)cc1C", "note": "(stereo unspecified)", "activity change, positive = activation": "inactive: -29.5%"},
      {"smiles": "CCc1ccccc1NC(=O)N1CCN(C(=O)c2nsc3ccccc23)CC1", "activity change, positive = activation": "inactive: -29.1%"},
      {"smiles": "CC(=O)N1CCCC1c1nc2ccccc2n1Cc1ccccc1C", "note": "(stereo unspecified)", "activity change, positive = activation": "inactive: -17.2%"},
      {"smiles": "CC1CCN(S(=O)(=O)c2ccc3c(ccn3CCC(=O)NCc3ccc(N(C)C)cc3)c2)CC1", "activity change, positive = activation": "inactive: -16.4%"},
      {"smiles": "COc1ccc(CNC(=O)Cn2c(=O)cc(-c3ccccc3)c3c(C)nn(C)c32)cc1", "activity change, positive = activation": "inactive: -17%"},
      {"smiles": "COc1ccc(S(=O)(=O)N(CC(=O)Nc2cccnc2)c2ccc(Cl)cc2)cc1", "activity change, positive = activation": "inactive: -29.1%"},
      {"smiles": "CCOc1ccccc1CNC(=O)c1cccn1-c1nnc(N2CCCC2)s1", "activity change, positive = activation": "inactive: -16.3%"},
      {"smiles": "Cc1cccc(N2CCN(C(=O)Cn3nc(Cc4cccnc4)c4ccccc4c3=O)CC2)c1C", "activity change, positive = activation": "inactive: -31.5%"},
      {"smiles": "COc1ccc(NC(=O)Cn2c(=O)ccc3cc(S(=O)(=O)N4CCCC4)ccc32)cc1Cl", "activity change, positive = activation": "inactive: -38.8%"},
      {"smiles": "CC(CCc1ccc(O)cc1)NCCc1ccc(O)c(O)c1", "note": "(stereo unspecified)", "activity change, positive = activation": "inactive"},
      {"smiles": "CCc1ccc2oc(C(=O)Nc3ccccc3C(=O)OC)cc(=O)c2c1", "activity change, positive = activation": "inactive: 9.01% [at 11.5 µM, percent change from vehicle, -100% = no light]"},
      {"smiles": "O=C(Nc1ccc(Cl)c(C(F)(F)F)c1)C1CCN(S(=O)(=O)c2cccc3nonc23)CC1", "activity change, positive = activation": "inactive: -57.8%"},
      {"smiles": "CCCNS(=O)(=O)Nc1ncnc(OCCOc2ncc(Br)cn2)c1-c1ccc(Br)cc1", "activity change, positive = activation": "inactive: -6.78%"},
      {"smiles": "Cc1ccccc1CSc1cn(CC(=O)N2CCCCCC2)c2ccccc12", "activity change, positive = activation": "inactive: -3.47%"},
      {"smiles": "Cc1cccn2c(=O)c(C(=O)NCCc3ccc(S(N)(=O)=O)cc3)c(O)nc12", "activity change, positive = activation": "inactive: 12.9%"}
    ]}
  ]
}
